Assay results taken from the supplement of paper PMC4967469.
A lower IC50 marks a more sensitive line; a fit beyond the top or the lowest dose is shown as a bound at that dose. AUC, from the same fit, is the share of area under the viability curve across the 256-fold dose range; values near 1 show little effect. For some of these results: Where the top dose is marked as inferred, it was calculated from the reported fits. For some of these results: Where an entry number is given, a second screen of the drug exists; the two often differ.

Legend:
Assay in all cases: Viability of human cancer cell lines after 72 h of drug (GDSC screen)
LFM-A13 = compound: C/C(O)=C(\C#N)C(=O)Nc1cc(Br)ccc1Br [LFM-A13]; settings: top dose 16 µM; top dose inferred
Description: (§1)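 Human cancer cell lines in 384-well plates, medium with 10% serum, drug for 72 h over a 256-fold dose range (nine 2-fold or five 4-fold steps up to the top dose). Adherent lines were fixed and stained with the nucleic acid dye Syto60, suspension lines read with resazurin; signal relative to control wells, capped at 0 and 100%. One two-parameter sigmoid per drug and line, fitted in a mixed model over all curves with the slope shared within a line.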

Gemcitabine = compound: Nc1ccn([C@@H]2O[C@H](CO)[C@@H](O)C2(F)F)c(=O)n1 [Gemcitabine]; settings: top dose 1.024 µM
Description: as §1

Nilotinib = compound: Cc1cn(-c2cc(NC(=O)c3ccc(C)c(Nc4nccc(-c5cccnc5)n4)c3)cc(C(F)(F)F)c2)cn1 [Nilotinib]; settings: top dose 2 µM
Description: as §1

Bicalutamide = compound: CC(O)(CS(=O)(=O)c1ccc(F)cc1)C(=O)Nc1ccc(C#N)c(C(F)(F)F)c1 [Bicalutamide]; settings: top dose inferred
Description: as §1

MP470 = compound: S=C(NCc1ccc2c(c1)OCO2)N1CCN(c2ncnc3c2oc2ccccc23)CC1 [MP470]; settings: top dose 20 µM; top dose inferred
Description: as §1

GNF-2 = compound: NC(=O)c1cccc(-c2cc(Nc3ccc(OC(F)(F)F)cc3)ncn2)c1 [GNF-2]; settings: top dose 1.28 µM; top dose inferred
Description: as §1

TW-37 = compound: CC(C)c1ccccc1Cc1cc(C(=O)Nc2ccc(S(=O)(=O)c3ccccc3C(C)(C)C)cc2)c(O)c(O)c1O [TW-37]; settings: top dose 5 µM
Description: as §1

AUY922 = compound: CCNC(=O)c1noc(-c2cc(C(C)C)c(O)cc2O)c1-c1ccc(CN2CCOCC2)cc1 [AUY922]; settings: top dose 0.256 µM; top dose inferred
Description: as §1

KIN001-270 = compound: Cc1ccc(Nc2cc(-c3cccc(N4C(=O)c5ccccc5C4=O)c3)ncn2)cc1NS(C)(=O)=O [KIN001-270]; settings: top dose 20 µM; top dose inferred
Description: as §1

T0901317 = compound: O=S(=O)(c1ccccc1)N(CC(F)(F)F)c1ccc(C(O)(C(F)(F)F)C(F)(F)F)cc1 [T0901317]; settings: top dose 10.24 µM; top dose inferred
Description: as §1

[1] = top dose 1.024 µM, screen: GDSC drug entry 150
[2] = top dose 10 µM, screen: GDSC drug entry 1502

Cell Line	AUC (LFM-A13)	IC50 (LFM-A13) [nM]	AUC (Gemcitabine)	IC50 (Gemcitabine) [nM]	AUC (Nilotinib)	IC50 (Nilotinib) [nM]	AUC (Bicalutamide; [1])	IC50 (Bicalutamide; [1]) [nM]	AUC (Bicalutamide; [2])	IC50 (Bicalutamide; [2]) [nM]	AUC (MP470)	IC50 (MP470) [nM]	AUC (GNF-2)	IC50 (GNF-2) [nM]	AUC (TW-37)	IC50 (TW-37) [nM]	AUC (AUY922)	IC50 (AUY922) [nM]	AUC (KIN001-270)	IC50 (KIN001-270) [nM]	AUC (T0901317)	IC50 (T0901317) [nM]
GI-1 (glioma, adherent)	0.892	> 16000	0.187	7.78	0.953	> 2000	0.987	> 1020	0.985	> 10000	0.949	> 20000	0.94	> 1280	0.4	168	0.638	37.9	0.945	> 20000	0.979	> 10200
MS-1 (small cell lung carcinoma, suspension)	0.989	> 16000	0.462	51.1	0.98	> 2000	0.991	> 1020	0.989	> 10000	0.866	14700	0.991	> 1280	0.571	477	0.706	56.5	0.986	> 20000	0.965	> 10200
CA46 (Burkitt lymphoma, suspension)	0.961	> 16000	0.75	358	0.985	> 2000	0.984	> 1020	0.963	> 10000	0.916	> 20000	0.97	> 1280	0.842	3880	0.625	36.4	0.898	> 20000	0.962	> 10200
DND-41 (T-cell leukaemia, suspension)	0.93	> 16000	0.429	41.9	0.973	> 2000	0.986	> 1020	0.98	> 10000	0.835	11000	0.99	> 1280	0.731	1290	0.527	18.8	0.944	> 20000	0.973	> 10200
CHP-126 (neuroblastoma, suspension)	0.941	> 16000	0.392	32	0.987	> 2000	0.982	> 1020	0.986	> 10000	0.876	> 20000	0.987	> 1280	0.575	503	0.713	65.3	0.983	> 20000	0.963	> 10200
8-MG-BA (glioma, adherent)	0.95	> 16000	0.158	6.26	0.982	> 2000	0.988	> 1020	0.976	> 10000	0.933	> 20000	0.988	> 1280	0.445	223	0.521	18.2	0.944	> 20000	0.98	> 10200
D-263MG (glioma, adherent)	0.911	> 16000	0.973	> 1020	0.97	> 2000	0.982	> 1020	0.932	> 10000	0.954	> 20000	0.983	> 1280	0.513	341	0.725	81.3	0.977	> 20000	0.974	> 10200
BV-173 (chronic myeloid leukaemia, suspension)	0.988	> 16000	0.881	854	0.074	< 7.81	0.988	> 1020	0.98	> 10000	0.84	11400	0.597	143	0.412	185	0.777	90.7	0.954	> 20000	0.95	> 10200
NCI-H1436 (small cell lung carcinoma, suspension)	0.983	> 16000	0.986	> 1020	0.98	> 2000	0.985	> 1020	0.976	> 10000	0.857	20000	0.972	> 1280	0.813	3200	0.868	> 256	0.983	> 20000	0.978	> 10200
U-698-M (B-cell leukaemia, suspension)	0.959	> 16000	0.495	62	0.966	> 2000	0.981	> 1020	0.969	> 10000	0.894	> 20000	0.982	> 1280	0.532	382	0.589	28.1	0.891	> 20000	0.984	> 10200
HH (T-cell leukaemia, suspension)	0.91	> 16000	0.505	66.4	0.963	> 2000	0.975	> 1020	0.942	> 10000	–	–	0.978	> 1280	0.651	947	0.599	32.8	0.887	> 20000	0.843	> 10200
WSU-DLCL2 (B-cell lymphoma, suspension)	0.989	> 16000	0.925	> 1020	0.992	> 2000	0.992	> 1020	0.983	> 10000	0.858	12200	0.993	> 1280	0.522	355	0.993	> 256	0.982	> 20000	0.931	> 10200
